Data reported in patent publication US20250263470A1.

Tests used:
[1] = target: recombinant HA derived from Victoria lineage strain B/BNE/08 (B/Brisbane/60/2008) (influenza B virus B/Brisbane/60/2008); experiment: ELISA on coated recombinant HA, unpurified IgG
[2] = target: recombinant HA derived from Yamagata lineage strain B/FLA/06 (B/Florida/4/2006) (influenza B virus B/Florida/4/2006); experiment: ELISA on coated recombinant HA, unpurified IgG

B1: FBC-39 FTS (antibody, V domains shown)
VH: [about 100 residues cut from this listing]DGPYSDDFRSGYAARYRYFGMDVWGQGTTVTVSS
VL: DIQMTQSPSSVSASVGDRVTITCRASQDISTWLAWYQQKPGKAPKLLIYAASSLQSGVPSRFSGSGSGTDFTLTISSLQPEDFATYYCQQANSFPPTFGQGTKLEIK
In the case of B1, the EC50 [1] is reported as greater than 1 µg/mL and the EC50 [2] is reported as 0.026 µg/mL.
